Reference: the supplement of paper PMC3334620
The full ranking holds about 33,000 sequences; the median of “E-score (-0.5 to 0.5)” is about -0.011, and the highest 2% start at about 0.28. This is one part of the list.

biological target: T1, Gcr1 (UniProt P07261); test: PBM E-score (8-mer binding enrichment) (E-score (-0.5 to 0.5)); higher = stronger / more preferred TF binding; most listed sequences are background and not binding sites; conditions: protein concentration: 100 nM; construct: GST-full length
T1 sequence: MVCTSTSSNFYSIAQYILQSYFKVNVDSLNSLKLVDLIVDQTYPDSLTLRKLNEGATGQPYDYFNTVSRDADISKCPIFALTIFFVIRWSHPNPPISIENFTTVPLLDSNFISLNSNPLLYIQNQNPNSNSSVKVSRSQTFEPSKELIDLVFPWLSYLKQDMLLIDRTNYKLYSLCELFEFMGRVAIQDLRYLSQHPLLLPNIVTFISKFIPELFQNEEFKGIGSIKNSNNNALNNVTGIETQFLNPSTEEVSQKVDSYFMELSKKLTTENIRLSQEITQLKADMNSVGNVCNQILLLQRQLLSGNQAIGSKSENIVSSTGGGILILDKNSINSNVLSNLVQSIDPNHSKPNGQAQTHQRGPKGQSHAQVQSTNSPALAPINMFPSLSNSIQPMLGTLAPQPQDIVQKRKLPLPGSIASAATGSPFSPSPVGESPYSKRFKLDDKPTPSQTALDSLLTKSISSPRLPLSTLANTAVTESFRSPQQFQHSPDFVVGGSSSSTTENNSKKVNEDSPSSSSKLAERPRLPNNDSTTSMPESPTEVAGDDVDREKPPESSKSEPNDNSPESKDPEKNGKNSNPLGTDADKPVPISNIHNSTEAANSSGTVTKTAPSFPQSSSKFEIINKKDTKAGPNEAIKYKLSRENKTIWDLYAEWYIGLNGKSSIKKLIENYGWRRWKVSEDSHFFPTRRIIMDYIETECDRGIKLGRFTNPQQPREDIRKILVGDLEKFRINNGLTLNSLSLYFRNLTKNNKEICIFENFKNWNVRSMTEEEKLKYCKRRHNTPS
Experimental: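 Universal 'all 10-mer' protein binding microarrays (Agilent AMADID 015681) probed with GST-tagged S. cerevisiae TFs (full-length or DBD) made by in vitro transcription/translation (PURExpress), about 100-200 nM. Bound TF was detected with fluorescent anti-GST. Each ungapped 8-mer (which stands for itself and its reverse complement) is scored by the PBM enrichment score (E-score), a modified Wilcoxon-Mann-Whitney statistic from -0.5 to +0.5, computed with the Universal PBM Analysis Suite. Scale: above 0.35 generally sequence-specific binding.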

| Sequence | PBM E-score |
| --- | --- |
| AAAGTACT | -0.118 |
| AGCCCGGC | -0.0879 |
| AACGAGTC | -0.0816 |
| AGCCTCGC | -0.278 |
| AGCATTGG | -0.112 |
| CATAACCA | -0.118 |
| ATTAGTGA | 0.0812 |
| GTGAGTCA | -0.19 |
| CCAGACCG | -0.134 |
| CATCCACC | 0.0114 |
| GTAAGAAA | -0.021 |
| ATAGAATC | 0.186 |
| AATTACGG | 0.236 |
| ACATGATG | -0.201 |
| AAAAAGAA | 0.275 |
| GCTCTACC | -0.226 |
| AACATTGT | 0.0112 |
| AGTATCCC | 0.159 |
| TCTCTGAA | -0.0468 |
| AATGAAAT | 0.214 |
| AACTCGGT | 0.00894 |
| ACCGTCGG | -0.257 |

| Sequence | PBM E-score |
| --- | --- |
| ATCGCCGG | 0.123 |
| GCTCCACC | -0.0809 |
| ACCCCTCG | -0.122 |
| AGTGACTG | -0.0392 |
| AGCTCAAC | -0.109 |
| AACCCATA | 0.153 |
| GTTTTTAA | 0.273 |
| CAGGTTAA | -0.0725 |
| AAACTCTA | 0.0598 |
| CTATGAGA | -0.0751 |
| AAAATCTA | 0.13 |
| AGTGCTGC | 0.039 |
| CAGTTATC | -0.0025 |
| CCCGTGCC | -0.114 |
| GATGCTAC | 0.338 |
| ATTCAGTC | 0.0416 |
| AAAATAGA | 0.0544 |
| AAATCACA | 0.05 |
| AGCGGCCA | 0.0725 |
| CGATCCCC | 0.111 |
| ATGATGGC | 0.0152 |
| AGCTACAA | 0.0399 |

| Sequence | PBM E-score |
| --- | --- |
| ACGAGAGA | -0.277 |
| TAAGCATA | -0.0359 |
| ATGAAGTC | -0.0984 |
| AATCCACG | 0.135 |
| GTAGGATA | -0.109 |
| ACGAGAAG | 0.0973 |
| CTAGTACC | -0.017 |
| ATGGGCCA | -0.112 |
| ACACGAGA | 0.135 |
| CAGTCCAA | -0.166 |
| CGCCCGAC | -0.00775 |
| AAATGGTT | 0.0753 |
| AATATAAC | -0.048 |
| AATAAACC | -0.0512 |
| ATTAACGC | 0.0245 |
| TCGCCAGA | -0.0962 |
| ACATAAAC | 0.106 |
| AGCGGACA | -0.0185 |
| TACTACAA | 0.118 |
| AAGTGTTA | -0.144 |
| ACCGAAAG | -0.0319 |
| AGACAGCA | -0.109 |

| Sequence | PBM E-score |
| --- | --- |
| CATACTCG | -0.102 |
| AAAAAAGA | 0.267 |
| ACGTGATA | -0.0863 |
| TCACCGAA | 0.0527 |
| AATTAGCA | 0.0964 |
| CTACTCGA | 0.0442 |
| AGGGTAGC | -0.37 |
| GGGTGAAA | -0.088 |
| AGATTAAG | 0.0255 |
| GGTGTCTA | 0.0118 |
| AGAGCACC | 0.163 |
| ATTAACTC | 0.0558 |
| TGGCGCAA | -0.0289 |
| GCCGTGAA | -0.0368 |
| AGTCGACG | -0.0927 |
| GTGTGCTA | -0.037 |
| ATAACACC | -0.0694 |
| AATGAAAG | -0.0494 |
| AAGAGTCA | -0.077 |
| AGCGAGTG | -0.206 |
